The other results are listed elsewhere or left out.
Tested on: PfHDP1 homeodomain (GST-tagged)
Assay: gcPBM binding intensity (ln(normalized median fluorescence intensity)); higher = stronger DNA binding
Method in brief: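 Alexa488 anti-GST antibody, scanned at 488 nm, detected GST-tagged P. falciparum DNA-binding domains that had been expressed in E. coli and incubated for 1 h on an Agilent 4 × 180k array. The array carried primer-extended double-stranded 36-bp intergenic genomic probes and negative controls. Binding intensity is the highest Masliner-normalised natural-log median intensity across replicate spots of either orientation of each probe.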

Compared with “AATACTCAAAAGAATCGTACAAACAACACTCCCACG [XGTACX_site7564]”, “TTACATGTAAAAGGTACACACATTAGATATACAAAT [CACACA_site6651]” is higher in “gcPBM binding intensity (ln)” value: 6.81 for the first, 6.88 for the second.

Going from “TATCATACCTTTTAATGTACACACATTTCTTTTTTG [XGTACX_site1655]” to “TGGAGGTCAGTTCACAGTACCCAGAAACTCTACGAG [XGTACX_site2007]”, the “gcPBM binding intensity (ln)” value falls from 6.94 to 5.8.

Going from “TATATATATATATATTGTACATATTAATATTAGAAA [XGTACX_site8923]” to “ATTACCATATAAAACACACAAACATACATACATACA [CACACA_site3729]”, the “gcPBM binding intensity (ln)” value falls from 9.12 to 7.57.

Compared with “TGAAATAACCCATGTGCATGCACTTCAATAACTGAA [TGCATGCA_site1041]”, TATAAATTAAAATCAGTGCATATTTTGAAAAACCTC is lower in “gcPBM binding intensity (ln)” value: 9.44 for the first, 8.78 for the second.

Compared with “TATAAATTATAAATTGCACACATATTTTTATATTTA [CACACA_site8974]”, “ATATTATTATTAGTTTCACACATTTAATGAAACTAA [CACACA_site5677]” is lower in “gcPBM binding intensity (ln)” value: 10.1 for the first, 6.55 for the second.

First: GTTATAATTTAGTCAAGTACATGCGTATGTATATTC [XGTACX_site3763]
Second: TATACAGATAAATACACACACATATATATATATATA [CACACA_site4178]
The “gcPBM binding intensity (ln)” value of the first is lower: 6.44 for the first, 9.31 for the second.

First: ATATATATATGTGTGTGTACATATGATTTCGCACTT [XGTACX_site4449]
Second: TAATATATATTATATACACACATATATATATATATA [CACACA_site428]
The “gcPBM binding intensity (ln)” value of the first is lower: 8.65 for the first, 9.27 for the second.

First: CACAGAAATATTCTTATACACACTGTTCTTATATTC [CACACA_site288]
Second: TGTATGTTAAATACAACACACAAAAAAAAACAAGTT [CACACA_site4324]
The “gcPBM binding intensity (ln)” value of the first is higher: 6.56 for the first, 6.41 for the second.

Compared with “TACCACTTTCGAAGTAGTACATGGCTTTTTTTTTTT [XGTACX_site8379]”, “TATAACTTTTTTAATACACACAAATATTTATTTATA [CACACA_site7425]” is higher in “gcPBM binding intensity (ln)” value: 6.11 for the first, 6.64 for the second.

Compared with “GGCATACACGAACACACACACACACGCACATATATA [CACACA_site6426]”, “TTTTACGTGAGTAATACACACATATAAGTTTATATA [CACACA_site4120]” is lower in “gcPBM binding intensity (ln)” value: 8.13 for the first, 6.67 for the second.

First: TTTTTGTATTCTCCGGACTACATTATGTTGTAAATG [CACACA_negctrl_site691]
Second: GTAATAAAAAATTAATGTACTTTATATAATATATTA [XGTACX_site5935]
The “gcPBM binding intensity (ln)” value of the first is higher: 6.69 for the first, 6.09 for the second.

Going from “GTATAAAAATTTAGGAGTACAATATATTTATAATAT [XGTACX_site2127]” to “TCTAATTTAAAATACACACACATATCTATAATATAT [CACACA_site7029]”, the “gcPBM binding intensity (ln)” value rises from 6.5 to 6.66.

First: TATTTGTAAAGACATGCATGGTACTTTTAAAACATA [TGCATGCA_site7]
Second: TGTAGATAAAATAAACGTACGTATTGATTTTTTTCA [XGTACX_site1610]
The “gcPBM binding intensity (ln)” value of the first is higher: 6.52 for the first, 6.04 for the second.

Going from CAGTTGTTAATTTGTGTGCACCAAATATTATACATA to “ATAATTCCATAAAATAGACACACGAATGTATAATAT [CACACA_site477]”, the “gcPBM binding intensity (ln)” value falls from 10.5 to 6.54.

First: ACATATGAATATAATACACACTTGTATTCTTAATAT [CACACA_site5085]
Second: TTAATATTTGTTCTGATCCTTTTATTCAACTTTTTT [CACACA_negctrl_site536]
The “gcPBM binding intensity (ln)” value of the first is lower: 6.43 for the first, 6.57 for the second.

First: TGGTAATACCCATACACACACACATACACATATATA [CACACA_site8877]
Second: TTTTCTTTCTTGTTTCGTATATTATAAAAAAAAAAG [CACACA_negctrl_site854]
The “gcPBM binding intensity (ln)” value of the first is higher: 7.04 for the first, 6.52 for the second.

Going from “TATTTGGGTATTTTTACACACATTAAAATATATATA [CACACA_site5800]” to “GTATTTTGCATAAATGCATGTAAATATATACCTACC [TGCATGCA_site957]”, the “gcPBM binding intensity (ln)” value rises from 6.21 to 7.28.

First: CCATATGATATATATTGTACATTATATATTATTTCT [XGTACX_site1697]
Second: TATGTTGTTTATTTAGTGCATATTTAAATATTATAA [GTGCAC_site9601]
The “gcPBM binding intensity (ln)” value of the first is lower: 6.61 for the first, 8.87 for the second.

First: AATGACATTCTTACACGTACAAAATAAAAAATAAAA [XGTACX_site6932]
Second: ATTTATTTTATAATATATAAATGATATATCTTATTA [CACACA_negctrl_site66]
The “gcPBM binding intensity (ln)” value of the first is higher: 6.75 for the first, 6.18 for the second.

Going from “TATATATTATATTCATGTACGTAAAAATTTTGAATA [XGTACX_site6734]” to “TGTACAGTAAATACAACACACATTTGTATAAATATA [CACACA_site4705]”, the “gcPBM binding intensity (ln)” value falls from 6.69 to 6.54.

First: TATTGTATAAAAATAACATGCAATCCTTATACTGCT [TGCATGCA_site345]
Second: GGACTTTATAAAAATGGTACACGCAATTCTATAATC [XGTACX_site6515]
The “gcPBM binding intensity (ln)” value of the first is higher: 6.34 for the first, 6.3 for the second.

First: TAATATATAAAAAGATGTACTTTTGCAAGTTCCTTT [XGTACX_site8519]
Second: ATATATATATATGTATGTACGTATGTATGTATGAAT [XGTACX_site4857]
The “gcPBM binding intensity (ln)” value of the first is lower: 6.41 for the first, 9.01 for the second.

Compared with “GGTACATACAAACACACACACAAAAAAAAAAAAATA [CACACA_site1577]”, “ATATTTTCCCTTTATAGGAGCACAAAAATTAAATGT [CACACA_negctrl_site1114]” is higher in “gcPBM binding intensity (ln)” value: 6.46 for the first, 7.2 for the second.

Compared with “CAGATAAGATTTTGTGGTACTATTTATTAAATTAGA [XGTACX_site2644]”, “ATTCGGATCTATAAGTGTACACAATCTAGCGAAAAG [XGTACX_site3088]” is higher in “gcPBM binding intensity (ln)” value: 6.06 for the first, 6.47 for the second.

First: TATACGCAGAAACACACACACAAAAAAAAAAAAAAA [CACACA_site427]
Second: TATAATAAATCGAACTGTACATATATATATATATAT [XGTACX_site7097]
The “gcPBM binding intensity (ln)” value of the first is lower: 6.27 for the first, 9.32 for the second.

Compared with “ATTTTTTTTGCTAAGTGTACACAAATGTTTATTAAT [XGTACX_site7440]”, “CATATATAAATATATACACACATATATATATATATA [CACACA_site1365]” is higher in “gcPBM binding intensity (ln)” value: 7.56 for the first, 9.26 for the second.

First: TTTATTCAAATATAATGTACTTTCTACAAATTCAAT [XGTACX_site8119]
Second: GCTAATAATAAAAGCATAATGAACAAACACCCAGTA [CACACA_negctrl_site806]
The “gcPBM binding intensity (ln)” value of the first is lower: 6.06 for the first, 7.22 for the second.

First: TTATATAACACGGGGAGGACACAAGAAATAAAGAGC [XGTACX_site2148]
Second: TTTTTCTGTTTTTATAGCCTTCTCATAATACATAAA [TGCATGCA_negctrl_site355]
The “gcPBM binding intensity (ln)” value of the first is higher: 6.68 for the first, 6.6 for the second.

Going from “AATATGTAAATATGGGTGCTTTAAAATATATTCATT [GTGCAC_site9583]” to “TTCCAATGATAAAATTGTACTTGAAGAAAATTTTTT [XGTACX_site4607]”, the “gcPBM binding intensity (ln)” value falls from 6.18 to 6.04.

First: ATTCACAAATATATGGTGCATAATATATATATATAT [GTGCAC_site9674]
Second: AACAATTATTGTAATGCATGCACTGAATATAGAAAG [TGCATGCA_site889]
The “gcPBM binding intensity (ln)” value of the first is higher: 10.5 for the first, 9.68 for the second.

Going from “ATATATATATGGAAGTGTACTTATATAGCATACTAG [XGTACX_site5130]” to “TACGTATCATAATTTTATTTTATATATATTCACAAA [XGTACX_negctrl_site144]”, the “gcPBM binding intensity (ln)” value falls from 8.37 to 6.31.

Compared with “AGCGTATAACATATGACACACACACCGACATACACA [CACACA_site8532]”, “AAATTTTTATAATTATCACACATTGAATTGTGGTCT [CACACA_site4343]” is lower in “gcPBM binding intensity (ln)” value: 6.75 for the first, 6.49 for the second.

First: GATATGTGTATAATATGTACATATATATATATATAT [XGTACX_site6531]
Second: ATTTCCCATACACGTTGTACAATGTAGAGAAAGTAT [XGTACX_site4586]
The “gcPBM binding intensity (ln)” value of the first is higher: 9.39 for the first, 6.77 for the second.

Compared with “CTATTTAAAATATGAACACACATTATTTGTTTTAGA [CACACA_site2713]”, “AATATAGGAATATGCACACATATATACCTACATACA [CACACA_site4939]” is higher in “gcPBM binding intensity (ln)” value: 6.2 for the first, 9.96 for the second.

First: AAAAAAAAAAATACTAGTACGTAAAATTATATAAAT [XGTACX_site3019]
Second: ATATCATTATATAGTTGTACATATTTATTTATTTAT [XGTACX_site8995]
The “gcPBM binding intensity (ln)” value of the first is lower: 6.7 for the first, 6.77 for the second.

First: TATATATATATATGTACACACACACCGATAAATAAA [CACACA_site8041]
Second: AAAGAAAGAAAACACACACACATATATATATATCAA [CACACA_site3743]
The “gcPBM binding intensity (ln)” value of the first is higher: 9.34 for the first, 6.82 for the second.

Compared with “TTTTTGTCTGCATACGCACACACGTGGACCATCTTA [CACACA_site8303]”, “AACAAAATAAAAAGTAATCTTATTTATTAAAATTTT [CACACA_negctrl_site419]” is lower in “gcPBM binding intensity (ln)” value: 7.5 for the first, 5.81 for the second.

Compared with “CTTTATTATAAGATTACACACATGTGTTCTAATTTA [CACACA_site7479]”, “TATAAACAAAACAAAACATGCATAATACTATAAATT [TGCATGCA_site333]” is higher in “gcPBM binding intensity (ln)” value: 6.49 for the first, 6.73 for the second.

First: TAATTAACTTTATATGCATGTTAAAAATGTTATAAG [TGCATGCA_site761]
Second: TTTATTAAGAAACACACACACACACCCAAAATAAAA [CACACA_site242]
The “gcPBM binding intensity (ln)” value of the first is lower: 6.31 for the first, 7.07 for the second.

First: GTAAATATTCATATATGTACTTATGATATTTGCTAA [XGTACX_site6828]
Second: TAATACTTATATAAAGGTACACAATTTAACCGAATG [XGTACX_site7173]
The “gcPBM binding intensity (ln)” value of the first is lower: 6.02 for the first, 6.61 for the second.

Going from “ACATATATATATATATATTGATTTATTTATTTCCCT [CACACA_negctrl_site659]” to “ATATATATATATAAATGTACAAAAATATATATGTAA [XGTACX_site4531]”, the “gcPBM binding intensity (ln)” value rises from 6.62 to 8.94.

Compared with “AAGAAAGAGTTCTGTTGTACAAAATATTAATATGTA [XGTACX_site7213]”, “CTTCCTTAGGAATGTACACACATATAAAATATGTTG [CACACA_site6355]” is lower in “gcPBM binding intensity (ln)” value: 6.66 for the first, 6.38 for the second.

Compared with “TTTCATTTTTTTACATGTACGCAAAAGTGTGTAGTT [XGTACX_site6582]”, “TTTTGGTTAATTCCCCCCATTACATTATGTCATGTC [CACACA_negctrl_site229]” is higher in “gcPBM binding intensity (ln)” value: 6.55 for the first, 7.99 for the second.

Going from “TCTTCAAAGACACAATCACACACATACATAAATATA [CACACA_site8128]” to “ATCAAAAATGTTATATATATATATATATATATATAT [TGCATGCA_negctrl_site71]”, the “gcPBM binding intensity (ln)” value rises from 6.89 to 9.42.

— the supplement of paper PMC11417369
